Measurements from PubChem BioAssay AID602393 (Broad Institute, 2012).
In all, about 350,000 compounds went through this assay and about 7,000 (2%) were called active. This list was built around the results that the source calls inconclusive (neither active nor inactive); the mix of calls is not that of the screen. Rule as the data show it: active = activation above about 40%; inconclusive = no clear call, values can overlap the other calls; inactive = below that.

Test: raisers of Bmi1 knock-in reporter signal – mouse ES cells, Bmi1 luciferase knock-in, single point, esBAF inhibitor project, primary screen (AID 602393);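 also: 0% = median of the plate's neutral control wells and 100% = double that signal; a rise in the Bmi1 reporter signal indicates esBAF inhibition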
Settings: 24 h, at 12.5 µM, hits give high values, 100% = twice the neutral-well signal

Reporter increase, active:
O=[N+]([O-])c1ccc(COc2cccc3cccnc23)cc1 82.9%
O=C(COC(=O)c1ccc(O)cc1O)c1ccc2c(c1)OCO2 63.5%
Fc1cccc(Cl)c1CN1CCN(c2nc3ccccc3s2)CC1 70%
O=c1c2ccccc2oc2c1oc1ccccc12 54.2%
COc1ccccc1CSc1nc2ccccc2[nH]1 69.6%
CCN(CC)C(=S)SCC(=O)c1ccc(F)cc1 48.4%
O=C(OCc1ccc(Cl)c(Cl)c1)c1ccc[nH]1 49.7%
COc1cccc(OCC(=O)O/N=C(\N)c2ccncc2)c1 46.9%
Cn1c(SCc2ccc(C#N)cc2Cl)nc2ccccc21 87.5%
CCCCc1nnc(NC(=O)c2oc3ccccc3c2C)s1 62.7%
COCOc1ccc(-c2cc(=O)c3c(O)cc(OCOC)cc3o2)cc1 88.5%
COc1ccc(/C=C/C(=O)Oc2cccc(/C=N/NC(=O)COc3c(C)cccc3C)c2)cc1 45.2%
CC(C)(C)c1ccc(C(=O)c2cn[nH]c2-c2ccccc2O)cc1 62.6%
CCCn1cnc2cc(NCc3cccc(OC)c3O)ccc21 55.6%

Reporter increase, inactive:
COc1ccc(-c2nnc(N(C)C(=O)c3ccco3)s2)cc1OC 9.89%
CO[C@H]1CN(C)C(=O)c2cc(NC(=O)C3CCC3)ccc2OC[C@H](C)N(Cc2ccccn2)C[C@H]1C 2.93%
Cc1noc(C)c1NC(=O)N(C)C[C@@H]1OCCCC[C@H](C)Oc2ccc(NS(=O)(=O)c3ccc(F)cc3)cc2C(=O)N([C@@H](C)CO)C[C@@H]1C 2.04%
CN1CCN(C(=O)CCN2C(=O)/C(=C/c3cccc(Br)c3)SC2=S)CC1 9.93%
COCC(=O)Nc1nc2n(n1)C(c1ccc(OC)cc1)CC(c1ccc(OC)cc1)N2 (stereo unspecified) -2.65%
COc1ccc(CN(C)C[C@@H]2OCCCC[C@@H](C)Oc3ccc(NC(=O)c4ccncc4)cc3C(=O)N([C@H](C)CO)C[C@H]2C)cc1 -0.925%
COc1ccc(CNc2cc(C)ccn2)cc1 11.2%
C[C@@]12C(=O)N(c3cccc(Cl)c3)C(=O)N1[C@H](c1ccc(Cl)cc1)[C@@H]1C(=O)N(C3CCCCC3)C(=O)[C@@H]12 -4.7%
C[C@H](O)C#Cc1cnc2c(c1)C(=O)N([C@H](C)CO)C[C@H](C)[C@@H](CN(C)Cc1cccc(F)c1)O2 -0.994%
CCn1c(C(=O)N2CCCC(C(=O)NCCc3ccc(C)cc3)C2)cc2sccc21 (stereo unspecified) -4.49%

Reporter increase, inconclusive:
CCn1c(NCc2ccc3c(c2)OCO3)nc2ccccc21 41.4%
O=C(c1ccc2c(c1)OCCCO2)c1cccs1 40.4%
C=CCn1c(SCC(C)=O)nc2scc(-c3ccc(C)o3)c2c1=O 42.5%
CC(=O)c1cnc2c(-c3ccccc3)cnn2c1C 42.2%
Nc1nc(-c2ccccc2Cl)cs1 40.2%
C[C@H](CO)N1C[C@H](C)[C@@H](CN(C)Cc2ccc(-c3ccccc3)cc2)Oc2ccc(NC(=O)CCCCCC(=O)Nc3ccccc3N)cc2CC1=O 49.4%
O=C(CN1CCCCC1)NC(=O)Nc1ccccc1F 41%
CO[C@@H]1CN(C)C(=O)c2ccc(NC(=O)c3nc4ccccc4s3)cc2OC[C@@H](C)N(Cc2ccncc2)C[C@H]1C 42.4%
C[C@H](CO)N1C[C@H](C)[C@@H](CN(C)Cc2ccncc2)Oc2c(NC(=O)Nc3ccc4c(c3)OCO4)cccc2C1=O 41.7%
CCn1cnc2cc(NCc3ccc(C)cc3)ccc21 42.7%
COc1ccc(Cn2c(-c3ccco3)nc3oc4cc(OC)ccc4c(=O)c3c2=O)cc1 43.4%
Cn1c2ccc(F)cc2c2nc3ccccc3nc21 55.9%
CCCSc1nnc(Nc2ccccc2C)s1 41.9%
CC(C)Sc1nc(SCC(=O)NCc2ccco2)c2c3c(sc2n1)COC(C)(C)C3 40.7%
O=C(NC1=NCCS1)c1sc2ccccc2c1Cl 40.4%
O=C(/C=C\c1ccco1)c1ccc(NC(=O)c2ccco2)cc1 36.2%
O=C(COc1ccc(F)cc1)Nc1nnc(C2CC2)s1 41.5%
C[C@@H]1CN([C@@H](C)CO)C(=O)c2cc(NS(=O)(=O)c3ccc(F)cc3)ccc2O[C@H]1CN(C)C(=O)Nc1ccc2c(c1)OCO2 48.3%
O=C1C2C(c3cccc(/C=C/c4ccccc4)c3)CC=CC2C(c2ccc3ccccc3c2)N1Cc1ccccc1 (stereo unspecified) 43.7%
Cc1ccc(C(=O)Oc2ccc(-c3nccc(-c4ccccn4)n3)cc2)cc1 41.4%
Cc1ccc(C(=O)Cn2c(=N)n(N)c3ccccc32)cc1 43.2%
O=C(Nc1nc2ccccc2[nH]1)C1CCCO1 (stereo unspecified) 43.1%
CC(C)c1ccc(OCc2ccc(C(=O)N3CCN(c4ccccn4)CC3)cc2)cc1 41.2%
O=C(Nc1ccccc1Cl)c1cc(C2CCCN(C(=O)OCCF)C2)on1 (stereo unspecified) 49.1%
Brc1ccsc1-c1csc(-c2ccncc2)n1 43.6%
Cn1c(N)c(C(=O)Nc2cccc(Cl)c2)c(=O)n(C)c1=O 40%
CCNC(=O)/C(C#N)=C/c1c(N2CCN(c3ccccc3)CC2)nc2ccccn2c1=O 41.8%
Oc1ccc(C=NNC(=S)Nc2ccc(F)cc2)c(O)c1 49.6%
CC(C)(C)c1csc(N/N=C/c2ccc(O)cc2)n1 47.1%
CC1S/C(=N/N=C/c2ccco2)N(Cc2ccccc2)C1=O (stereo unspecified) 38.5%
Cc1nn(-c2ccccc2)cc1/C=N/NC(=O)c1cccs1 46.3%
Cc1nc2ccccc2c(=O)n1/N=C/c1ccc(C(C)C)cc1 43%
